Test results reported in PubChem BioAssay AID624417 (National Center for Advancing Translational Sciences (NCATS), 2012).
Hit rate of the full screen: of about 410,000 compounds, about 6,400 (1.6%) were called active. Inconclusive results, whose numbers are uncertain, are shown with a selection of clear calls. Calls follow the shape of the dose curve; as a rule, active = well fitted inhibition curve with a large enough effect; inconclusive = small, poorly fitted or top-dose-only effect; inactive = no such curve, though single readings can be large or run the other way. Potencies of inconclusive entries are doubtful fits and often do not repeat.

Each compound was assayed against Glucagon-like peptide 1 receptor (Homo sapiens) (UniProt P43220) (assay: qHTS of GLP-1 Receptor Inverse Agonists (Inhibition Mode)). Conditions: HEK293 GLP-1R CRE-luciferase, luminescence, 24 h, GLP-1R form is constitutively active; activity change, negative = inhibition: at 38.3 µM (top of the series) unless noted.
Sequence of UniProt P43220 (P43220 whole entry, looked up): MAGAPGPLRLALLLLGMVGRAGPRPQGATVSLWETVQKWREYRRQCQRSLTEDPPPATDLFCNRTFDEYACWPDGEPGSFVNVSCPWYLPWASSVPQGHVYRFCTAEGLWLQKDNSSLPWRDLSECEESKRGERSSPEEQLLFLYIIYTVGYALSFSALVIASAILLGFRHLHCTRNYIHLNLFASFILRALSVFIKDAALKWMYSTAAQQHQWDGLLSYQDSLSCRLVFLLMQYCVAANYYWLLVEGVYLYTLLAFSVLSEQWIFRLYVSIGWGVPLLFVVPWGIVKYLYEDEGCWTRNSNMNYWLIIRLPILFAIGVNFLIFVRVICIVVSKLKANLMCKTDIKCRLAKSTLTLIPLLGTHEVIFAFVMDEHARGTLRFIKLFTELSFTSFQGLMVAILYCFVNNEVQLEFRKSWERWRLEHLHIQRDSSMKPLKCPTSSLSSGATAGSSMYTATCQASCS
Summary of the method: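 Using stably transfected HEK293 (constitutively active GLP-1R, cAMP-luciferase reporter), compounds were incubated 24 hr and luciferase measured by luminescence.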
% is scaled to controls: 0 for no effect and ±100 for the full control effect; potency is read from the fitted curve at half-maximal effect; tags tell the direction and shape of the fitted curve.
Also: nearly all actives have a fitted effect of over 55% in size.

Potency, inconclusive:
CSc1ncccc1C(=O)N(C)CC(=O)Nc1ccc(Cl)c(C(F)(F)F)c1 10 µM [inhibitor, partial curve, poor fit], O=C(C1=C[C@H](c2ccc(C(F)(F)F)cc2)C[C@H](OCc2ccc(CO)cc2)O1)N1CCCCCCC1 20 µM [inhibitor, single point], OCC1(Cc2ccccc2)CCCN(Cc2cnn(-c3ccccc3)c2)C1 (stereo not drawn) 20 µM [inhibitor, partial curve, poor fit], COc1ccc(C(=O)N[C@H](C(=O)NCC2CCCCC2)C(C)C)cc1 10 µM [inhibitor, partial curve, poor fit], CCCN(CCC)S(=O)(=O)c1ccc2c(c1)N(CC(=O)NCc1ccc(F)cc1Cl)C(=O)CS2 11.2 µM [inhibitor, partial curve, poor fit], C=CCn1c(SCn2nnc3ccccc3c2=O)nnc1C1CCCCC1 8.91 µM [inhibitor, partial curve], CCOc1ccc(N(C)c2ccc(/C=C3/SC(=S)NC3=O)cc2)cc1 28.2 µM [inhibitor, single point], COc1ccc(C(CC(=O)c2ccccc2)CC(=O)c2ccccc2)cc1 12.6 µM [inhibitor, single point], COC(=O)c1c(NC(=O)CN2C(=O)NC(CCc3ccccc3)C2=O)sc2c1CCCCC2 (stereo not drawn) 11.2 µM [inhibitor, single point], CCOP(=O)(OCC)C(Nc1ccc([N+](=O)[O-])cc1)c1ccc(Cl)cc1 (stereo not drawn) 11.2 µM [inhibitor, partial curve, poor fit], Cc1occc1C(=O)N1CCCC(Nc2ccc(F)c(F)c2)C1 (stereo not drawn) 28.2 µM [inhibitor, single point], CCOC(=O)c1[nH]c2cc(OC)c(OC)cc2c1NC(=O)CN(C)C1CCCCC1 12.6 µM [inhibitor, single point], COc1ccc(C(=O)N2N=C(c3ccc(NS(C)(=O)=O)cc3)CC2c2cccs2)cc1 (stereo not drawn) 10 µM [inhibitor, single point], Cc1onc(-c2c(Cl)cccc2Cl)c1C(=O)Nc1nccs1 31.6 µM [inhibitor, partial curve, poor fit], Cc1ccnc(NC(=S)NC(=O)c2cccs2)c1 3.98 µM [inhibitor, partial curve, poor fit], Cc1onc(-c2ccccc2Cl)c1C(=O)Nc1nnc(C(C)C)s1 10 µM [inhibitor, partial curve, poor fit], Cn1cc(CN2CCCC(C(=O)c3cccs3)C2)c(-c2cccc(Cl)c2)n1 (stereo not drawn) 3.55 µM [inhibitor, partial curve, poor fit], COc1ccc(S(=O)(=O)N(C)[C@H]2C[C@H]3c4cc(-c5ccccc5)ccc4CCN3C(=O)[C@H]2[C@H](C)O)cc1 28.2 µM [inhibitor, single point], CCc1nc2ccc(C(=O)NCCOc3ccc(OC)cc3)cn2c1N(C)Cc1ccc(OC)cc1 10 µM [inhibitor, single point], O=C(CN1C(=O)NC2(CCc3ccccc32)C1=O)Nc1cc(C(F)(F)F)ccc1N1CCOCC1 (stereo not drawn) 12.6 µM [inhibitor, single point], Cc1ccccc1OCC(=O)NNC(=O)C1CCN(c2ncnc3sc(C)c(C)c23)CC1 10 µM [inhibitor, partial curve, poor fit], CCOC(=O)C1CCN(CC(O)COc2ccc(C(C)(C)C)cc2)CC1 (stereo not drawn) 31.6 µM [inhibitor, partial curve, poor fit], O=C(CCNC(=O)c1ccc(Cl)cc1)Nc1cccc(S(=O)(=O)N2CCCCC2)c1 8.91 µM [inhibitor, partial curve, poor fit], O=C(c1noc2c1CCCCC2)N1CCN(c2cccc(C(F)(F)F)c2)CC1 28.2 µM [inhibitor, single point], CCC(NC(=O)c1cc(COc2cncc(Cl)c2)on1)c1ccc(C)cc1 (stereo not drawn) 11.2 µM [inhibitor, single point], O=C(CSc1nc(-c2ccccc2)cs1)Nc1cccc([N+](=O)[O-])c1 10 µM [inhibitor, partial curve, poor fit], Cc1ccc(Cl)cc1N1CCN(C(=O)C2CCN(S(=O)(=O)c3cccc4nonc34)CC2)CC1 7.94 µM [inhibitor, partial curve, poor fit], CN1CCN(C(=O)Cn2c(-c3cccs3)cc3cc(Cl)ccc32)CC1 12.6 µM [inhibitor, single point], CCOc1ccc(N(CC)S(=O)(=O)N2CCCC(C(=O)Nc3cc(Cl)ccc3C)C2)cc1 (stereo not drawn) 17.8 µM [inhibitor, single point], Cc1nn(C)cc1CN(C)Cc1ccc(OCC(O)CN2CCCCC2)cc1 (stereo not drawn) 4.47 µM [inhibitor, partial curve, poor fit], CC1(C)C(=O)OC(/C=C\c2ccccc2)C(C)(C)C1=O (stereo not drawn) 31.6 µM [inhibitor, single point], COc1ccc(NC(=O)Nc2nc3c(s2)CCCC3)cc1 28.2 µM [inhibitor, single point], Cc1ccc(S(=O)(=O)c2c(C(=O)c3ccccc3)cnc3cc4c(cc23)OCCO4)cc1 10 µM [inhibitor, partial curve, poor fit], O=C1C=C(NC(=O)Nc2ccc(Cl)c(Cl)c2)CCC1 10 µM [inhibitor, partial curve, poor fit], O=C(Nc1cccc(Cl)c1)N(CCN1CCOCC1)Cc1cccc(Cl)c1 28.2 µM [inhibitor, single point], O=C1CCC(C(=O)OCC(=O)N2N=C3/C(=C\c4ccccc4)CCCC3C2c2ccccc2)N1 (stereo not drawn) 14.1 µM [inhibitor, partial curve, poor fit], CCCCNC(=O)COCc1cc(-c2ccc3c(c2)OCO3)on1 28.2 µM [inhibitor, single point], COC(=O)CC/C(O)=C1\C(=O)CC(C)(C)CC1=Nc1ccccc1OC 20 µM [inhibitor, single point], COc1ccc(N(CC(=O)NC2CCCC2)C(=O)Cn2nnc(-c3ccc(F)cc3)n2)cc1 6.31 µM [inhibitor, partial curve], CC(C)c1ccc(NC(=O)CCNS(=O)(=O)c2cccc3nonc23)cc1 10 µM [inhibitor, partial curve, poor fit], COc1ccc2c(c1)c(C(=O)N/N=C/c1ccc(Br)cc1)c(C)n2C 5.62 µM [inhibitor, full curve, poor fit], CC1CCC(=NO)C(=NO)C1 (stereo not drawn) 12.6 µM [inhibitor, single point], CCn1c(SC(C)C)nnc1-c1c[nH]c2ccccc12 10 µM [inhibitor, single point], Cc1cc(C(C)(C)C)cc(C)c1C[n+]1ccc2ccccc2c1 6.31 µM [inhibitor, partial curve, poor fit], Cc1cc(C)nc(SCNC(=O)c2ccc(Cl)cc2)n1 11.2 µM [inhibitor, single point], NC(=S)n1[nH]c(-c2ccc([N+](=O)[O-])cc2)c(N=Nc2cccc([N+](=O)[O-])c2)c1=O 3.55 µM [inhibitor, full curve, poor fit]

Potency, active:
O=C(Nc1cccc(-c2csc(Nc3ccccc3)n2)c1)c1ccccc1 8.91 µM

Potency, inactive:
CCN1CCN(CC(=O)Nc2cccc(C)c2)C(=O)C1=O, COc1cc(C2SC[C@H]3C(=O)N(c4ccccc4)C(=O)N23)cc(OC)c1OC (stereo partly drawn), O=S(=O)(c1ccc(NC2CCCc3ccccc32)nc1)N1CCOCC1 (stereo not drawn), COC(=O)c1cc(C(=O)OCC(=O)NC(=O)NCc2ccccc2)cc([N+](=O)[O-])c1, O=[N+]([O-])c1cccnc1N1CCN(Cc2ccc3c(c2)OCO3)CC1, CCN(CC)CCNC(=O)c1ccc(CSc2nc3ccncc3n2Cc2cccc(F)c2)cc1, CCCCN(CC)CCCNC(=O)Cn1ncc2c3ccccc3n(Cc3ccccc3F)c2c1=O, CCOc1ccc(-c2cc3c(=O)n(Cc4nc(-c5ccc(OC(C)C)cc5)oc4C)ccn3n2)cc1Cl, CC(C)c1ccc(NC(=O)c2cc(S(=O)(=O)N3CCCCC3)cn2C)cc1, C=CCOc1ccc(/C=C(\C#N)C(=O)Nc2ccccn2)cc1OC, S=c1nc(-c2ccc(Cl)cc2)[nH][nH]1, CCCC(=O)Nc1ccc(N2CCN(C(=O)c3ccccc3C)CC2)cc1, Cc1cccc(C)c1NS(=O)(=O)c1c(C(=O)N2CCCCC2)c(C)n(C)c1C

Activity change, negative = inhibition, inactive:
COC(=O)C1=C(C)N(C)C(=S)NC1c1c(OC)ccc2ccccc12 (stereo not drawn) -2.02% [at 0.307 µM]

Activity change, negative = inhibition, inconclusive:
COc1ccc(CN2CCN(Cc3ccccc3C(F)(F)F)CC2)c(OC)c1 -82.2% [inhibitor], S=C(c1ccc(N2CCCC2)c(Br)c1)N1CCCCC1 -46.7% [inhibitor] [at 7.66 µM]
